Consider 20 molecules from publication PMC9911399, “Two distinct binding modes provide the RNA-binding protein RbFox with extraordinary sequence specificity”.

Positions count from the first letter of the chain named. The list shows a part of the results.

T1: RBFOX1 RRM RbFoxmut (Fox-RRM*) (Homo sapiens, UniProt Q9NWB1 109-208, R118D;E147R;N151S;E152T)
T1 sequence: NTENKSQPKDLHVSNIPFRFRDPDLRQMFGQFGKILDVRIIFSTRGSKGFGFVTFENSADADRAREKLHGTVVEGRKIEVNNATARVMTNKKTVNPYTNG

B1: AGUUGGG (DNA:RNA)
RNA: GGGAGACCGGAAUUCAGAUUGUCCAGUUGGGUUAAAUCCCGUCGUAGCCACCA
DNA 1: CAATCTGAATTCCGGTCTCCC
DNA 2: TGGTGGCTACGACGGGATT
B2: AAUGUGU (DNA:RNA)
RNA: B1 RNA with G26A, U28G, G29U, G31U
DNA 1: CAATCTGAATTCCGGTCTCCC
DNA 2: TGGTGGCTACGACGGGATT
B3: GGGAGCA (DNA:RNA)
RNA: B1 RNA with A25G, U27G, U28A, G30C, G31A
DNA 1: CAATCTGAATTCCGGTCTCCC
DNA 2: TGGTGGCTACGACGGGATT
B4: AUCCCUG (DNA:RNA)
RNA: B1 RNA with G26U, U27C, U28C, G29C, G30U
DNA 1: CAATCTGAATTCCGGTCTCCC
DNA 2: TGGTGGCTACGACGGGATT
B5: CGGGGUC (DNA:RNA)
RNA: B1 RNA with A25C, U27G, U28G, G30U, G31C
DNA 1: CAATCTGAATTCCGGTCTCCC
DNA 2: TGGTGGCTACGACGGGATT
B6: GGGUGUU (DNA:RNA)
RNA: B1 RNA with A25G, U27G, G30U, G31U
DNA 1: CAATCTGAATTCCGGTCTCCC
DNA 2: TGGTGGCTACGACGGGATT
B7: AGGAACU (DNA:RNA)
RNA: B1 RNA with U27G, U28A, G29A, G30C, G31U
DNA 1: CAATCTGAATTCCGGTCTCCC
DNA 2: TGGTGGCTACGACGGGATT
B8: UGCCAUC (DNA:RNA)
RNA: B1 RNA with A25U, U27C, U28C, G29A, G30U, G31C
DNA 1: CAATCTGAATTCCGGTCTCCC
DNA 2: TGGTGGCTACGACGGGATT
B9: AGGGGCG (DNA:RNA)
RNA: B1 RNA with U27G, U28G, G30C
DNA 1: CAATCTGAATTCCGGTCTCCC
DNA 2: TGGTGGCTACGACGGGATT
B10: UUAAUGC (DNA:RNA)
RNA: B1 RNA with A25U, G26U, U27A, U28A, G29U, G31C
DNA 1: CAATCTGAATTCCGGTCTCCC
DNA 2: TGGTGGCTACGACGGGATT
B11: GAAUUAU (DNA:RNA)
RNA: B1 RNA with A25G, G26A, U27A, G29U, G30A, G31U
DNA 1: CAATCTGAATTCCGGTCTCCC
DNA 2: TGGTGGCTACGACGGGATT
B12: CUACGAU (DNA:RNA)
RNA: B1 RNA with A25C, G26U, U27A, U28C, G30A, G31U
DNA 1: CAATCTGAATTCCGGTCTCCC
DNA 2: TGGTGGCTACGACGGGATT
B13: GUACCGU (DNA:RNA)
RNA: B1 RNA with A25G, G26U, U27A, U28C, G29C, G31U
DNA 1: CAATCTGAATTCCGGTCTCCC
DNA 2: TGGTGGCTACGACGGGATT
B14: GAAUAGA (DNA:RNA)
RNA: B1 RNA with A25G, G26A, U27A, G29A, G31A
DNA 1: CAATCTGAATTCCGGTCTCCC
DNA 2: TGGTGGCTACGACGGGATT
B15: GAUCCCA (DNA:RNA)
RNA: B1 RNA with A25G, G26A, U28C, G29C, G30C, G31A
DNA 1: CAATCTGAATTCCGGTCTCCC
DNA 2: TGGTGGCTACGACGGGATT
B16: GCUAGGU (DNA:RNA)
RNA: B1 RNA with A25G, G26C, U28A, G31U
DNA 1: CAATCTGAATTCCGGTCTCCC
DNA 2: TGGTGGCTACGACGGGATT
B17: ACUAAUC (DNA:RNA)
RNA: B1 RNA with G26C, U28A, G29A, G30U, G31C
DNA 1: CAATCTGAATTCCGGTCTCCC
DNA 2: TGGTGGCTACGACGGGATT
B18: GCCUCGC (DNA:RNA)
RNA: B1 RNA with A25G, G26C, U27C, G29C, G31C
DNA 1: CAATCTGAATTCCGGTCTCCC
DNA 2: TGGTGGCTACGACGGGATT
B19: GUUCGCC (DNA:RNA)
RNA: B1 RNA with A25G, G26U, U28C, G30C, G31C
DNA 1: CAATCTGAATTCCGGTCTCCC
DNA 2: TGGTGGCTACGACGGGATT
B20: UGCGCCU (DNA:RNA)
RNA: B1 RNA with A25U, U27C, U28G, G29C, G30C, G31U
DNA 1: CAATCTGAATTCCGGTCTCCC
DNA 2: TGGTGGCTACGACGGGATT

The assay deals with T1, RBFOX1 RRM RbFoxmut (Fox-RRM*). The assay can be described thus: EMSA; HiTS-Eq, 1 nM pool, 10 min; buffer printed only for the single-RNA assays: 10 mM Tris pH 7.5, 150 mM NaCl, 3.4 mM EDTA, 0.001% NP-40, 30 C. Conditions: tags: His6 N-terminal (pET28a); label: 5' 32P. In short, it runs like this: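 A pool of RNA with 7 randomized nucleotides, 5′-radiolabelled and with DNA-annealed flanks, was equilibrated at 1 nM for 10 min in 50 µL with purified RbFox RRM, wild type or mutant, across increasing protein concentrations. Free RNA was separated by 8% native PAGE, excised, reverse-transcribed, barcoded by PCR and sequenced. Relative association constants were obtained from read-count changes of each RNA species versus the control reaction and normalised to the cognate motif.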
(In general: In EMSA bound probe runs differently from free probe, usually more slowly.)
For B1, the binding signal was 0.0708 KA relative to UGCAUGU.

For B2, the binding signal is 0.135 KA relative to UGCAUGU.

Take B3: the binding signal is 0.109 KA relative to UGCAUGU.

Regarding B4, the binding signal was 0.0776 KA relative to UGCAUGU.

As to B5, the binding signal was 0.204 KA relative to UGCAUGU.

For the molecule B6, the binding signal was 0.153 KA relative to UGCAUGU.

For B7, the binding signal is 0.0868 KA relative to UGCAUGU.

For B8, the binding signal was 0.208 KA relative to UGCAUGU.

B9: the binding signal was 0.18 KA relative to UGCAUGU.

Regarding B10, the binding signal is 0.118 KA relative to UGCAUGU.

Turning to B11, the binding signal is 0.115 KA relative to UGCAUGU.

Take B12: the binding signal is 0.0551 KA relative to UGCAUGU.

B13: the binding signal is 0.12 KA relative to UGCAUGU.

In the case of B14, the binding signal is 0.121 KA relative to UGCAUGU.

Turning to B15, the binding signal is 0.0816 KA relative to UGCAUGU.

For the molecule B16, the binding signal is 0.127 KA relative to UGCAUGU.

Regarding B17, the binding signal is 0.0671 KA relative to UGCAUGU.

In the case of B18, the binding signal is 0.156 KA relative to UGCAUGU.

Consider B19, for which the binding signal is 0.134 KA relative to UGCAUGU.

B20: the binding signal is 0.0952 KA relative to UGCAUGU.
